Some of the results follow.
B1: chr1:220276048:220276049:+_ENSG00000067704_ENST00000302637|hu_hu|hu_hu_hu_mus_True|18_58 (ssRNA)
RNA: GGGAGUUCUACAGUCCGACGAUCGCAAAUUGCCUGGUUGGCGGGAAUUGUCCAAGGCUGGGUGGUCCAAACUAAAAUACUAACAGGGGAUGAGGCAUCUGUAAGAGACUCCAACUUUGGAGAAGGCCUCAGGAGGGGGAAUCUCAACAGAGGAUUGAGCAUCA
B2: chr7:135612270:135612271:-_ENSG00000105887_ENST00000393085|hu_mus|hu_hu_hu_mus_False|1_1 (ssRNA)
RNA: GGGAGUUCUACAGUCCGACGAUCGUUUUUUUCUGAGAUGUUAAAUAGUACUUCAGUGGAAAACAAAACUUAACCUUUUAUUAAUGCGUGUUGUACCAAAAGCAGACAUUUUAGCUUCAUUUAUUCAAAAAUAUUAAGAACAUUCAACAGAGGAUUGAGCAUCA
B3: chr17:65740002:65740003:+_ENSG00000130935_ENST00000581375|hu_hu|hu_hu_hu_mus_False|38_98 (ssRNA)
RNA: GGGAGUUCUACAGUCCGACGAUCAACAAAUCUUUCUCUGGAUGAAGAACAGGAAGAUUCAUAUUAAAAAAAAUAUAUAUCCAUCAAGUUAGGUGUGUAAUAUCAGACUUUACUCCCAGCACUUUGGGAGGUGGAUCUCUGAGUCAACAGAGGAUUGAGCAUCA
B4: 75761440_75765194_482_CDS_ENSMUSG00000032932_ENSMUST00000046283|mouse|control|control (ssRNA)
RNA: GGGAGUUCUACAGUCCGACGAUCCUCGGCCAUCUCCUUUAGCUUCAGCAGCAAUCGAGAGCCGACAAACUCUGGAGAAACGAUGAUGGUUUCAUUACUUGUCACAGAAAACUCAGCCAUCCCAUUUCUGUGUAAAACCUUAAACAACAGAGGAUUGAGCAUCA
B5: chr4:184596322:184596323:+_ENSG00000168538_ENST00000334690|hu_mus|FALSE|FALSE (ssRNA)
RNA: GGGAGUUCUACAGUCCGACGAUCGGCGUUUUGUGUAUCUUGUUUCAACUCACUGAAGAAAGCUAUUUUAAACUGAUGUCUAACAAACAAAAGCUGGUGUGUUGUUUUAUUCAAAAAUUCCUUAUGAGAUUUCACUCUUCUGAUCAACAGAGGAUUGAGCAUCA
B6: chr4:71639242:71639243:+_ENSG00000018189_ENST00000226328|hu_hu|FALSE|FALSE (ssRNA)
RNA: GGGAGUUCUACAGUCCGACGAUCACCGUCUCCUUCAGUACCUUUACUGCUGUUCCCGUCCUUGAGAUACAUUGAAAAAUCUAUAACUCCAACCUGAGAGUCCAAGUCUUCUCCUUUCAUACAGAAAUUGGCAUCAAUGACAUUCAACAGAGGAUUGAGCAUCA
B7: chr11:100904286:100904287:+_ENSMUSG00000019302_ENSMUST00000044721|mus_hu|FALSE|FALSE (ssRNA)
RNA: GGGAGUUCUACAGUCCGACGAUCAUGGAUGAUACCAAGGAUAACAGACAUCUUCAUCUUAAAGGAGUUCAAGAACGUCAGUUUAUUGGUAGCAAUGUUCCAAAUUGGAUCAAUGCCAAAAGGGUAUGGUCCACCAAACACUCCCAACAGAGGAUUGAGCAUCA
B8: chr17:56552419:56552420:-_ENSMUSG00000013236_ENSMUST00000086828|mus_mus|mus_mus_mus_hu_False|8_8 (ssRNA)
RNA: GGGAGUUCUACAGUCCGACGAUCAAAAAAUACACUAUUUAAAAAAAAUGAAAUGUCACGGGAUACAGUUACACUGAGAGUUUUAAAAGAAAGCUGGAUUCUGGUCCCAGCCCAGUGUCCCCAGGCUGAGUGCGGAAGAGGAGCCAACAGAGGAUUGAGCAUCA
B9: chr3:176740097:176740098:-_ENSG00000177565_ENST00000430069|hu_mus|hu_hu_hu_mus_True|8_68 (ssRNA)
RNA: GGGAGUUCUACAGUCCGACGAUCUGUUUUGUAUACCACAAAAGGAGGCACUUUCAGUAUCUGCAAAAGGUAUUUAAUCCUAAAACAUACUCACCUAGAGGAUAACUCAGGAAAACAAUCUGUUACACUAGUAUCUAUACUCCACAACAGAGGAUUGAGCAUCA
B10: chr1:58468927:58468928:-_ENSMUSG00000026034_ENSMUST00000148330|mus_mus|mus_mus_mus_hu_False|38_58 (ssRNA)
RNA: GGGAGUUCUACAGUCCGACGAUCAAUUACUGAAAAAGAUGUUCAUUACCUUAGCUAUGUACUUAAUGAACCAAAUUAUCUAAAAAAAAUAAACAUGUUUACAAAUUAAUGUUAAGAAUUUACAAAGCUGUACAAAAUAACUUACAACAGAGGAUUGAGCAUCA
B11: chr4:113189463:113189464:+_ENSG00000138660_ENST00000274000|hu_hu|motif|central (ssRNA)
RNA: GGGAGUUCUACAGUCCGACGAUCUACAGGAUUUACAAAUCCAGAAUACUCGGAAUUUCCAUUAUCAUCCAUUUCGGCACGGACAAAAUCAUUUUCCCACUCCAGCCCAUUGGAAUCAUCAGAGGCUGAUGUAGGAUUACUUCCCAACAGAGGAUUGAGCAUCA
B12: chr17:56552419:56552420:-_ENSMUSG00000013236_ENSMUST00000086828|mus_mus|mus_mus_mus_hu_False|28_28 (ssRNA)
RNA: GGGAGUUCUACAGUCCGACGAUCAAAAAAUACACUAUUUAAAAAAAAUGAAAUGUCACGGGAUACAGUUACACUGAGAGUUUUAAAAGAAAGCUGGAUUCUGGUCCUUGCCAAAAGUCCCCAGGCUGCAGAGCGGGGAGGAGCCAACAGAGGAUUGAGCAUCA
B13: 13574355_13574475_1963_CDS_ENSMUSG00000005397_ENSMUST00000005532|mouse|control|control (ssRNA)
RNA: GGGAGUUCUACAGUCCGACGAUCGUUGUACAGGACAAACACGCUGUCCACAGAGAGCUGCUGGGUGCUGGGCAGGGCUGGCCUGGCGUCAUCGUGGGCACACUCCUGGAAGGUGAUGGUCUGACGCCACUGGUAAAUAUGGGUCAACAGAGGAUUGAGCAUCA
B14: chr3:176768308:176768309:-_ENSG00000177565_ENST00000430069|hu_mus|motif|central (ssRNA)
RNA: GGGAGUUCUACAGUCCGACGAUCACUGAGGUUCCAGAUUCUUGCCGUGGAGUCUCCAGACCCUGAUGCCAGGAGAUCACGGACAGGGUUCCAGGCACAGAUGAAAACUUCAGAUUCAUGGCCCCGAAGCACAACCGCUUUAUUCAACAGAGGAUUGAGCAUCA
B15: 64966598_64966718_4841_CDS_ENSG00000171988_ENST00000542921|human|control|control (ssRNA)
RNA: GGGAGUUCUACAGUCCGACGAUCAUCUUUUACAUAUUUAUCAACUAUGAUCUUACUAUCUACACUAUUUUGUAUAUCACUAGAUGUAGAGGCUAUUAAGUUGACAGAACAUGGCUUAAUAAUUUCUGAUACAGAAUUCCCUGACAACAGAGGAUUGAGCAUCA
B16: 138178366_138178486_2588_3pUTR_ENSMUSG00000041570_ENSMUST00000048309|mouse|control|control (ssRNA)
RNA: GGGAGUUCUACAGUCCGACGAUCCCCUGGGGUUGCUGGCUCUUAGGUCAUAGUCCUGAAGAAGCUUAGAUGCAUCAUCCAUGUCGGAGUCUAAGCUAACAGUAUAAUCUCUCAAGGAGGAGUCUUCGUCCAUGGUCUCCGGAACAACAGAGGAUUGAGCAUCA
B17: chr16:42174279:42174280:+_ENSMUSG00000061080_ENSMUST00000099761|mus_mus|FALSE|FALSE (ssRNA)
RNA: GGGAGUUCUACAGUCCGACGAUCGCAGAACAGGGACGCUGCCAGCAGCCACAGUGGUACGGCCAGACUGACGGAUCCGUUGAUUCCUCUCACCGACCCGGGUCUGAAAAGGACUAGGCUGGCAUUGGUGACACCGAGCUUGUUCAACAGAGGAUUGAGCAUCA
B18: 37566520_37566640_2117_CDS_ENSG00000125686_ENST00000300651|human|control|control (ssRNA)
RNA: GGGAGUUCUACAGUCCGACGAUCAUCUUUAAGAAGGUUCAUGAGCAUCGGGUGGUUCUUGGUGUUGCCGGCCAUCGAAGAGACAGGUGGCGGCGUGUGAUGAGGAGGGGUCGGACUCGAGCCAAUGGUAGACCCCCCGUUCCCCAACAGAGGAUUGAGCAUCA
B19: 87704977_87743905_466_CDS_ENSG00000008277_ENST00000398209|human|control|control (ssRNA)
RNA: GGGAGUUCUACAGUCCGACGAUCCAUCCCAUGAAGUCCGUGGCAUGUUGACAAUGCAACAAAUGAGUCAGGGUUUCCUCGGAUAUGGCCCUGGUAGUAACAGUGCUCUCCUCCUUUAACUUCCACAGUCUUGCCUCCAUGUUCCAACAGAGGAUUGAGCAUCA
B20: chr1:167535829:167535830:-_ENSMUSG00000026566_ENSMUST00000068705|mus_mus|motif|central (ssRNA)
RNA: GGGAGUUCUACAGUCCGACGAUCAGGAGGAUUUUUGACAUCGCAGAUAUAGGUGCCAUUGUGAACAGCCUGAAUAUUUUCGGUAUUGAUUGAUGCAUCUUUCUUGUCAAGGUCCCCAGCCCAGGUGACUCGGUCUUUAAAUGGCAACAGAGGAUUGAGCAUCA
B21: chr8:95500983:95500984:-_ENSG00000164944_ENST00000437199|hu_hu|hu_hu_hu_mus_True|68_78 (ssRNA)
RNA: GGGAGUUCUACAGUCCGACGAUCAGAACACAUCUAUCGAGUAAAGGACCGUACAUGGACGACCUCUACCACUGCCUCACUAACAAACUUUCCUCUCGAGCCUCCACUGCCGCUAUUUGUACUAGCCCAGGACGGUCCCAGGCCCAACAGAGGAUUGAGCAUCA
B22: chr3:130449232:130449233:-_ENSG00000196455_ENST00000356763|hu_mus|FALSE|FALSE (ssRNA)
RNA: GGGAGUUCUACAGUCCGACGAUCUUCAUCUACCUCCUCGUUAUCGGGCUCGUUCUCCAUGUUGAGAGUUUUCAGCUGCACAAGCUCCAGGAAUCGCAGAGCCGUCUCGGCCAACAGAGCUAUGUUUUCAGCGUAGGCCAGUCUCAACAGAGGAUUGAGCAUCA

biological target: T1, UNK ZnF1-3 (human, UniProt Q9C0B0 31-174); test: nsRBNS (natural sequence RNA bind-n-seq); RBNS binding buffer (assumed for nsRBNS): 25 mM Tris pH 7.5, 150 mM KCl, 3 mM MgCl2, 0.01% Triton X-100, 500 ug/ml BSA, 20 U/ml SUPERase-In, 4 C; UNK is unkempt and MSI1 is Musashi-1; names of the RNAs are library labels; protein concentration not given here; high values mean tight binding
T1 sequence: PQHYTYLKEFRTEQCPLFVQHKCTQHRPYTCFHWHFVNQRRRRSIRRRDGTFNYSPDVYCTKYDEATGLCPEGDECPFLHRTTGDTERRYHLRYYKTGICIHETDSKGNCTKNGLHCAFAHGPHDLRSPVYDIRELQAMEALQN

Going from B1 to B2, the binding signal falls from 2.91 enrichment R to 0.925 enrichment R.

First: B3
Second: B4
The binding signal of the first is higher: 2.36 enrichment R for the first, 0.707 enrichment R for the second.

Compared with B5, B6 is higher in binding signal: 0.928 enrichment R for the first, 1.07 enrichment R for the second.

First: B7
Second: B8
The binding signal of the first is lower: 0.755 enrichment R for the first, 2.08 enrichment R for the second.

Going from B9 to B10, the binding signal rises from 0.752 enrichment R to 1.73 enrichment R.

Going from B11 to B12, the binding signal rises from 0.4 enrichment R to 3.25 enrichment R.

Going from B13 to B14, the binding signal falls from 1.14 enrichment R to 1.07 enrichment R.

Compared with B15, B16 is lower in binding signal: 0.687 enrichment R for the first, 0.677 enrichment R for the second.

Compared with B17, B18 is higher in binding signal: 1.02 enrichment R for the first, 1.11 enrichment R for the second.

Compared with B19, B20 is higher in binding signal: 0.828 enrichment R for the first, 0.894 enrichment R for the second.

First: B21
Second: B22
The binding signal of the first is higher: 1.34 enrichment R for the first, 1.05 enrichment R for the second.
